According to PubChem BioAssay AID326 (DTP/NCI, 2004):
Inconclusive results and toxic doses are left out. Not every entry of the source has a single result; some have several. The list is limited to them. The source may hold further records. Values that stand side by side differ for a reason that is not stated; they may come from other doses, times, organisms or constructs than stated.

Test system: CD2F1 mice, P388/DHAQ leukemia ip, median survival T/C
Test: NCI In Vivo Anticancer Drug Screen. Data for tumor model P388 Leukemia resistant to Dihydroxy Anthracenedione; NSC 299195 (intraperitoneal) in CD2F1 (CDF1) mice
Conditions: endpoint: median survival time, schedule: Q04DX003 (ip), vehicle: saline with Tween-80, higher = longer survival
Procedure: The antitumor activity of compounds was measured in mice bearing transplantable tumors. Survival or tumor size were measured and the results are expressed as the measurement made in the treated group (T) divided by the measurement made in the vehicle treated control group (C). The tumor model used in this assay is P388 Leukemia resistant to Dihydroxy Anthracenedione; NSC 299195 (intraperitoneal) in CD2F1 (CDF1) mice

Cc1c2ccncc2c(C)c2c1[nH]c1ccccc12
T/C (dose: 21.6 mg/kg/injection): 102 % of control, 118 % of control, 169 % of control
T/C (dose: 36.0 mg/kg/injection): 112 % of control and 184 % of control
T/C (dose: 100.0 mg/kg/injection): 112 % of control and 161 % of control
